Data from the supplement of paper PMC10126150.
Sequences with one replicate were seen in a single cluster, so their values are uncertain.
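Note: ATP exposure 15 min at 22 °C before imaging.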

What follows are sequences tested on ATP (assay: switch fluorescence ratio, 500 uM ATP over buffer (Cy3 cluster intensity, sum of 5 cycles each) (fold (ratio)); higher = stronger signal-on switching upon ATP binding; sequences stand for … in TCGTCGGCAGCGTCAGATGTGTATAAGAGACAGTTTTTTTTTTTTTTTTTTTTTTTTT…TC). Settings: aptamer strand: ATP DNA aptamer (quencher-CACCTGGGGGAGTATTGCGGAGGAAGG + anchor), 100 nM annealed; ATP concentration: 500 uM; one replicate.
Method in brief: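 Cy3-labelled switching-strand clusters on a modified Illumina MiSeq flow-cell were annealed to 100 nM quencher-labelled ATP aptamer and imaged first in selection buffer, then after 15 min with 500 uM ATP at 22 °C. NaOH stripping and re-annealing separated each of five buffer/ATP cycles, and clusters outside 100-1000 RFU were excluded. The fluorescence ratio sums target-cycle Cy3 intensity over buffer-cycle Cy3 intensity per cluster and averages it per switch-domain sequence.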
With TTAGGCACTT the switch fluorescence ratio was 1.08. In the case of TTAGGCAGGA, the switch fluorescence ratio is reported as 0.975. In the case of TTAGGCCACG, the switch fluorescence ratio is reported as 0.993. TTAGGCGACG gave a switch fluorescence ratio of 0.961. TTAGGCGAGC was tested, and the switch fluorescence ratio was 1.05. With TTAGGGCAGC the switch fluorescence ratio was 0.953. Work on TTAGGGCGCA yielded a switch fluorescence ratio of 0.993. In the case of TTAGGGGTAA, the switch fluorescence ratio is reported as 1. TTAGGTGAAG was tested, and the switch fluorescence ratio was 1.04. TTAGGTTAC showed a switch fluorescence ratio of 1.02. TTAGGTTACG showed a switch fluorescence ratio of 1.03. In the case of TTAGGTTATG, the switch fluorescence ratio is reported as 1.03. With TTAGTACTG the switch fluorescence ratio was 0.981. In the case of TTAGTAGCGG, the switch fluorescence ratio is reported as 0.964. In the case of TTAGTGAGGC, the switch fluorescence ratio is reported as 0.986. For TTAGTGCACT, the switch fluorescence ratio was 0.984. For TTAGTTAATT, the switch fluorescence ratio was 1.19. TTAGTTCAAG was tested, and the switch fluorescence ratio was 0.966. In the case of TTAGTTCAAT, the switch fluorescence ratio is reported as 0.972. Work on TTAGTTTTT yielded a switch fluorescence ratio of 0.994. For TTATAAAACG, the switch fluorescence ratio was 0.97. In the case of TTATAACGAC, the switch fluorescence ratio is reported as 1.09. For TTATAAGCAT, the switch fluorescence ratio was 1.06. TTATAAGGAG was tested, and the switch fluorescence ratio was 0.999. With TTATAATAGC the switch fluorescence ratio was 0.944. Sequence TTATACACTC has a switch fluorescence ratio of 1.01. TTATACATTC was tested, and the switch fluorescence ratio was 1.01. TTATAGTATA showed a switch fluorescence ratio of 1.03. TTATATATAG gave a switch fluorescence ratio of 0.998. TTATATGCTT was tested, and the switch fluorescence ratio was 0.995. TTATATGTCT was tested, and the switch fluorescence ratio was 1.02. With TTATATTATG the switch fluorescence ratio was 1.04. TTATCATAG showed a switch fluorescence ratio of 1.03. TTATCCCCAC was tested, and the switch fluorescence ratio was 1.02. TTATCGCATA showed a switch fluorescence ratio of 1.22. TTATCGCTCG was tested, and the switch fluorescence ratio was 0.992. Sequence TTATCGTAA has a switch fluorescence ratio of 0.996. In the case of TTATCGTTCT, the switch fluorescence ratio is reported as 0.978. TTATCTAGGT was tested, and the switch fluorescence ratio was 1.04. Work on TTATCTCGCG yielded a switch fluorescence ratio of 0.988. TTATCTTTGA was tested, and the switch fluorescence ratio was 1.03. TTATGAACTA gave a switch fluorescence ratio of 0.994. In the case of TTATGATATC, the switch fluorescence ratio is reported as 0.964. TTATGCCCGA was tested, and the switch fluorescence ratio was 1. Work on TTATGCGCTC yielded a switch fluorescence ratio of 1.04. TTATGGAGAC gave a switch fluorescence ratio of 1.05. TTATGGAGGT was tested, and the switch fluorescence ratio was 0.948. TTATGGCTGG showed a switch fluorescence ratio of 1.01. TTATGGGACG gave a switch fluorescence ratio of 1.11. Work on TTATGGGCAC yielded a switch fluorescence ratio of 1.08. TTATGGTTTA showed a switch fluorescence ratio of 1.06. TTATGTAATG showed a switch fluorescence ratio of 1.01. TTATTAAGA was tested, and the switch fluorescence ratio was 1.03. Work on TTATTAGAGT yielded a switch fluorescence ratio of 0.95. For TTATTATGTT, the switch fluorescence ratio was 1.02. With TTATTATTAA the switch fluorescence ratio was 0.962. For TTATTATTCG, the switch fluorescence ratio was 0.992. TTATTCCGCC showed a switch fluorescence ratio of 1.64. Work on TTATTCGCTT yielded a switch fluorescence ratio of 1.04. TTATTCTCTA gave a switch fluorescence ratio of 1. Sequence TTATTGATGA has a switch fluorescence ratio of 1.01. With TTATTTCTAG the switch fluorescence ratio was 0.996. With TTATTTTCTC the switch fluorescence ratio was 0.998. TTCAAAATT showed a switch fluorescence ratio of 0.99. With TTCAAACCGC the switch fluorescence ratio was 1.16. With TTCAACCGGC the switch fluorescence ratio was 1.06. TTCAACTGTA showed a switch fluorescence ratio of 1.11. In the case of TTCAAGACAG, the switch fluorescence ratio is reported as 1.01. TTCAAGAGCA was tested, and the switch fluorescence ratio was 1.04. TTCAAGCCCG gave a switch fluorescence ratio of 0.966. TTCAATGAAG showed a switch fluorescence ratio of 0.991. For TTCAATGAG, the switch fluorescence ratio was 1.02. With TTCACACGAT the switch fluorescence ratio was 1. Sequence TTCACAGGGC has a switch fluorescence ratio of 1.06. TTCACAGTG was tested, and the switch fluorescence ratio was 1.02. TTCACGAGTA showed a switch fluorescence ratio of 1.03. Sequence TTCACTGAAT has a switch fluorescence ratio of 1.04. TTCACTGGTA was tested, and the switch fluorescence ratio was 1.04. Work on TTCAGACAGA yielded a switch fluorescence ratio of 0.982. Work on TTCAGAGGGA yielded a switch fluorescence ratio of 0.955. With TTCAGCCCTT the switch fluorescence ratio was 1.01. Sequence TTCAGCTCCC has a switch fluorescence ratio of 1.12. Work on TTCAGGGTCT yielded a switch fluorescence ratio of 0.977. In the case of TTCAGTAT, the switch fluorescence ratio is reported as 1.1. TTCAGTGTCT gave a switch fluorescence ratio of 0.979. With TTCAGTTGCC the switch fluorescence ratio was 1.02. In the case of TTCATAAGCG, the switch fluorescence ratio is reported as 0.993. TTCATACTAA was tested, and the switch fluorescence ratio was 0.992. Sequence TTCATAGTAG has a switch fluorescence ratio of 0.951. TTCATATCTT gave a switch fluorescence ratio of 1.02. TTCATCGGTC was tested, and the switch fluorescence ratio was 0.992. TTCATCTGTG was tested, and the switch fluorescence ratio was 1.01. TTCATGACTA was tested, and the switch fluorescence ratio was 0.984. For TTCATGAGCA, the switch fluorescence ratio was 1.02. With TTCATGTATG the switch fluorescence ratio was 0.983. TTCATGTCTC gave a switch fluorescence ratio of 0.986. Sequence TTCATTGCAC has a switch fluorescence ratio of 1.06. Sequence TTCATTGTAC has a switch fluorescence ratio of 1.04. With TTCATTGTAG the switch fluorescence ratio was 0.976. With TTCATTTGG the switch fluorescence ratio was 0.973. In the case of TTCCAAAGCA, the switch fluorescence ratio is reported as 1.36. With TTCCAACT the switch fluorescence ratio was 1.09. For TTCCAATTGT, the switch fluorescence ratio was 1. Work on TTCCACAGAC yielded a switch fluorescence ratio of 1.77. For TTCCACTGTG, the switch fluorescence ratio was 1.39. For TTCCATCCTG, the switch fluorescence ratio was 0.971. Work on TTCCCACGT yielded a switch fluorescence ratio of 1.03. TTCCCCTATG gave a switch fluorescence ratio of 1.04. TTCCCCTTTG was tested, and the switch fluorescence ratio was 1.06. TTCCCGGTTT was tested, and the switch fluorescence ratio was 0.988. Work on TTCCCTGATT yielded a switch fluorescence ratio of 1. Sequence TTCCCTGGTG has a switch fluorescence ratio of 1.61. In the case of TTCCGACTGT, the switch fluorescence ratio is reported as 1.56. Work on TTCCGCAGGG yielded a switch fluorescence ratio of 1.5. Sequence TTCCGCGG has a switch fluorescence ratio of 1.09. For TTCCGGGGC, the switch fluorescence ratio was 1.07. TTCCGTACAT showed a switch fluorescence ratio of 1.13. With TTCCGTCGCT the switch fluorescence ratio was 1.04. In the case of TTCCGTCGT, the switch fluorescence ratio is reported as 1.04. With TTCCTACAGC the switch fluorescence ratio was 1.61. Sequence TTCCTAGCGG has a switch fluorescence ratio of 0.987. For TTCCTAGGTG, the switch fluorescence ratio was 5.91. TTCCTAGTAA gave a switch fluorescence ratio of 1.19. With TTCCTCCAGG the switch fluorescence ratio was 1.4. Sequence TTCCTCCATC has a switch fluorescence ratio of 1.35. With TTCCTCGATT the switch fluorescence ratio was 1.05. Sequence TTCCTCGGAA has a switch fluorescence ratio of 2.38. TTCCTTCAGT gave a switch fluorescence ratio of 2.29. TTCCTTCATG was tested, and the switch fluorescence ratio was 1. With TTCCTTTGTA the switch fluorescence ratio was 1.05. Sequence TTCGAACTTG has a switch fluorescence ratio of 0.978. Sequence TTCGAAGTTT has a switch fluorescence ratio of 0.997. Sequence TTCGACATGG has a switch fluorescence ratio of 1. Work on TTCGAGTTCG yielded a switch fluorescence ratio of 1.01. TTCGATAGAT showed a switch fluorescence ratio of 1.05. TTCGATATCC showed a switch fluorescence ratio of 0.976. With TTCGATTCAT the switch fluorescence ratio was 1.02. Work on TTCGATTGAA yielded a switch fluorescence ratio of 0.98. In the case of TTCGCAGCAC, the switch fluorescence ratio is reported as 2.65. In the case of TTCGCAGGGC, the switch fluorescence ratio is reported as 3. With TTCGCATGGT the switch fluorescence ratio was 1.17. TTCGCATGTA gave a switch fluorescence ratio of 1.03. Sequence TTCGCGCCCC has a switch fluorescence ratio of 5.4. Work on TTCGCTTTGT yielded a switch fluorescence ratio of 1.03. In the case of TTCGGAAGTA, the switch fluorescence ratio is reported as 0.977. With TTCGGAGGTT the switch fluorescence ratio was 0.974. TTCGGAGTGT gave a switch fluorescence ratio of 0.995. For TTCGGCCTGG, the switch fluorescence ratio was 0.987. In the case of TTCGGCTATA, the switch fluorescence ratio is reported as 1.02. TTCGGGATGG showed a switch fluorescence ratio of 0.962. TTCGGGCCAA gave a switch fluorescence ratio of 1.67. Sequence TTCGGTGGCC has a switch fluorescence ratio of 1.01. Work on TTCGTACCTA yielded a switch fluorescence ratio of 1.07. TTCGTATTA showed a switch fluorescence ratio of 0.992. In the case of TTCGTCGTGA, the switch fluorescence ratio is reported as 1.01. With TTCGTGCGTG the switch fluorescence ratio was 0.979. Work on TTCGTGGTCT yielded a switch fluorescence ratio of 1.01. TTCGTGTTGC showed a switch fluorescence ratio of 0.992. TTCGTTGTTA gave a switch fluorescence ratio of 0.976. TTCTAATTCC was tested, and the switch fluorescence ratio was 1.1. Work on TTCTAGCATT yielded a switch fluorescence ratio of 0.979. Sequence TTCTAGTCCT has a switch fluorescence ratio of 1.04. For TTCTAGTTAT, the switch fluorescence ratio was 0.998. In the case of TTCTATTGTG, the switch fluorescence ratio is reported as 0.98. In the case of TTCTCAGACA, the switch fluorescence ratio is reported as 0.983. TTCTCATGAA was tested, and the switch fluorescence ratio was 0.959. Work on TTCTCCTACT yielded a switch fluorescence ratio of 1.1. TTCTCGCATC was tested, and the switch fluorescence ratio was 3.84. In the case of TTCTCGGGGT, the switch fluorescence ratio is reported as 0.995. TTCTCTACCA showed a switch fluorescence ratio of 1.03. TTCTGCTCCT was tested, and the switch fluorescence ratio was 1.04. Sequence TTCTGGGAAT has a switch fluorescence ratio of 0.959. Work on TTCTGGTCGA yielded a switch fluorescence ratio of 0.987. For TTCTTATTAC, the switch fluorescence ratio was 1.29. With TTCTTCAGAT the switch fluorescence ratio was 1.04. Sequence TTCTTGTCAT has a switch fluorescence ratio of 0.989. Work on TTCTTTCAAT yielded a switch fluorescence ratio of 1.93. In the case of TTCTTTCGTA, the switch fluorescence ratio is reported as 1.02. With TTGAAACTAT the switch fluorescence ratio was 0.974. TTGAACTAAG gave a switch fluorescence ratio of 1.04. Sequence TTGAAGTCAC has a switch fluorescence ratio of 1.54. TTGAATAGAC showed a switch fluorescence ratio of 1.05. TTGAATGCTC gave a switch fluorescence ratio of 1.08. TTGAATTGCA was tested, and the switch fluorescence ratio was 0.998. Sequence TTGACACAA has a switch fluorescence ratio of 1.16. For TTGACATCG, the switch fluorescence ratio was 0.983. Work on TTGACCAAGA yielded a switch fluorescence ratio of 1.01. TTGACCGA was tested, and the switch fluorescence ratio was 1.02. TTGACGAGAC gave a switch fluorescence ratio of 1.18. In the case of TTGACTTTAG, the switch fluorescence ratio is reported as 0.968. With TTGAGAGACA the switch fluorescence ratio was 0.985. Work on TTGAGAGTGG yielded a switch fluorescence ratio of 1.01. In the case of TTGAGCAGCA, the switch fluorescence ratio is reported as 0.976. Sequence TTGAGCCGCT has a switch fluorescence ratio of 1. Work on TTGAGCTATC yielded a switch fluorescence ratio of 1.06. With TTGAGCTTTG the switch fluorescence ratio was 1.02. For TTGAGGAGGT, the switch fluorescence ratio was 0.917. Work on TTGAGGATGC yielded a switch fluorescence ratio of 1.06. TTGAGGCATA was tested, and the switch fluorescence ratio was 1.3. Sequence TTGAGGCTAG has a switch fluorescence ratio of 0.941. For TTGAGGTAAC, the switch fluorescence ratio was 1.01.
